This passage reports self-cleavage results from the RNAGym collection of RNA variant scans (doi:10.7554/elife.90254).

Read counts are not given, so values of variants with three or more changes are uncertain.

B1: LINE1-mini (parent)
chain: GGCAGAGCUCAACACAGCGUGGCAAAGUGGCUGUGGCUAGACUGCC

The variants in this series derive from B1. The experiment in a line: self-cleavage, relative activity (ratio to wild type); higher = more cleavage; in vitro, sequencing; the parent is a self-cleaving ribozyme.
Take GGCAGAUCUCAACAUAGCGUGGCAAAGUGGCUGUGGCUAGACUUCC [G7U C15U G44U]: the self-cleavage was found to be 0.1.
On to GGCAGAUCUCAACAGAGCGUGGCAAAGCGGCUGUGGCUAGACUGUC [G7U C15G U28C C45U], for which the self-cleavage was 0.01.
Turning to GGCAGAUCUCAACACAGCGUGACAAAGUGGCUGUGACUAGACUGCC [G7U G22A G36A], the self-cleavage was 0.03.
In the case of GGCAGAUGUCAACACAGCCUGGCUAAGUGGCUUUGGCUAGACUGCC [G7U C8G G19C A24U G33U] it was 0.04; in that of GGCAGAUCUCAACACAGCGUGACAAAGUGUCUGUGGCUUUACUGCC [G7U G22A G30U A39U G40U], 0.19; in that of GGCAGAUCAAAACACAGCGUGGCAUAGUGGAUGGGGCUAGACUGCC [G7U U9A C10A A25U C31A U34G], 0.08.
As for GGCAGAUCUCAACACAGCGUGGCAAAGUGGCUGUGCCUAGACUGAC [G7U G36C C45A], the self-cleavage was 0.14.
The figure for GGCAGAUCUCAACACAGCGUGGCAAAGUGGCUCUGGCUGGACUGCC [G7U G33C A39G] is 0.04; for GGCAGAUCUGAACACAUCGGGGCAAAGUGGCUGUGGCUAGACUGCC [G7U C10G G17U U20G] it is 0.03.
For GGCAGAUCUUACAACAGCGUGGCAAAGUGGCUGUGGCUAGGCUGCC [G7U C10U A12C C13A A41G], the self-cleavage was determined as 0.
Turning to GGCAGAUCUCAACAUAGCGGGGCAACGUGGCAGUGGUUAGAGUGCC [G7U C15U U20G A26C U32A C37U C42G], the self-cleavage was 0.05.
On to GGCAGAUCUGAACACAGCGUGGCAAAGUGGCUGCGGCUAGACUGCC [G7U C10G U34C], for which the self-cleavage is 0.05.
As for GGCAGAUCUCAACACAGCGUAGCAAAGUGGCUCUGGCUAGCCUGCC [G7U G21A G33C A41C], the self-cleavage was determined as 0.14.
Turning to GGCAGAUCUCAACACAGCGUGGCAAAGUGGCUGUGGCUAAUCGGCC [G7U G40A A41U U43G], the self-cleavage is 0.18.
Consider GGCAGAUCUCAACAAAGCGGCGCAAAGUGGCUGUGGCUAGACUGAC [G7U C15A U20G G21C C45A], for which the self-cleavage is 0.02.
The figure for GGCAGAUCUCAACAGAGAGUGGCAAAGUGGCUCUGGCUAGAUUGCC [G7U C15G C18A G33C C42U] is 0.01; for GGCAGAUCUCAACACAGCGUGGCAAAGUGGCUAUGGCUGGACUGCC [G7U G33A A39G] it is 0.26.
The figure for GGCAGAUCUCAACAAAGCGUGGCAAAGUGGCUGUGGCUAGGCUGCC [G7U C15A A41G] is 0.17; for GGCAGAUCUUAACACCGCGUGGCAAAGUGGCUGUGGCUAGAAUGCC [G7U C10U A16C C42A] it is 0.04; for GGCAGAUCUCAACACAGCGUGGCAAAGUGACUGUGGCUAUACUGCC [G7U G30A G40U] it is 0.29.
Consider GGCAGAUCUCAACAUAACGUGGCAAGCUGGCUGUGGCUAGACUGCC [G7U C15U G17A A26G G27C], for which the self-cleavage came out at 0.06.
For the variant GGCAGAUCUCAACACAGCUCGGCAAAGUGACUGUGGCUAGACUGCC [G7U G19U U20C G30A], the self-cleavage amounted to 0.08.
In the case of GGCAGAUGGCAAAACUGCGUGGCAAAUUGGCUGUGGCUAGACUGCC [G7U C8G U9G C13A A16U G27U], the self-cleavage is 0.02.
In the case of GGCAGAUUUCCACACAGCGUGGCAAAACUGCUGUGGAUAGAUUGAC [G7U C8U A11C G27A U28C G29U C37A C42U C45A] it was 0; in that of GGCAGAUCUCAACACAGCGUGGCAAAGUCGCUGUGGGUAGACUGCC [G7U G29C C37G], 0; in that of GGCAGAUCUCAACACAGCGUGGCAAAGUGGCUGUAGCUGGACUGCC [G7U G35A A39G], 0.03.
In the case of GGCAGAUCUCAAGACAGCGUGGCAAAGCGGCUGUCGCUAGACUGCC [G7U C13G U28C G35C], the self-cleavage was found to be 0.05.
The figure for GGCAGAUCUGAGCAGAGCGUGGCAAAGUGGCUGUGGCUAGACUGCC [G7U C10G A12G C15G] is 0; for GGCAGAUCUCAACACAGCGUGGCAAACUGGUUGUGGCUAGACCGCC [G7U G27C C31U U43C] it is 0.06; for GGCAGAUCUCAACACAGCGUUGCAAAGUGGCUGUGACUAGACUGCC [G7U G21U G36A] it is 0.13.
Turning to GGCAGAUCUCAACACAGCGUGGCAAAUUGGCUGUCGCUAGACUGCG [G7U G27U G35C C46G], the self-cleavage amounted to 0.1.
In the case of GGCAGAUCUUUACACAGCGUGGCAAAGUGGCUGAGGCUAGACUGCC [G7U C10U A11U U34A], the self-cleavage was 0.02.
For GGCAGAUCUAAACACAGCGUGGCAAAGUGGCUGUGGCUAGACUGGC [G7U C10A C45G], the self-cleavage was 0.02.
In the case of GGCAGAUCUAAACACAGCGUGGCAAAGUGGCUGUGGCUAGACUGUC [G7U C10A C45U], the self-cleavage is 0.01.
On to GGCAGAUCUCAACACAGCGUUGCAAAGUGGCUGUGGCUAGACUGCA [G7U G21U C46A], for which the self-cleavage was found to be 0.03.
As for GGCAGAUCUCAACACAGCGUGGCAAAGUAGCUGUGGCUAGACAGCC [G7U G29A U43A], the self-cleavage amounted to 0.04.
Regarding GGCAGAUUUCGACGCAGCGUGGCAAAGUGGCUGUGGCUAGACUGCC [G7U C8U A11G A14G], the self-cleavage came to 0.02.
Take GGCAGAUCUACACACAGCGUGGCAAAGUGGCUGUGGCUUGACUGCC [G7U C10A A11C A39U]: the self-cleavage is 0.02.
In the case of GGCAGAUCUCAACACAGCGUGCCAAAGUGGCUGUGGCUAGACGGCC [G7U G22C U43G] it was 0.08.
As for GGCAGAUCUCAACAUAGCGUAGCAAAGUGGCUGUGGCAAGACUGCU [G7U C15U G21A U38A C46U], the self-cleavage was 0.03.
As for GGCAGAUCUCAACAUAGCGUGGCAAAGUGGCUAUGGCUAGACUGCC [G7U C15U G33A], the self-cleavage was found to be 0.07.
As to GGCAGAUGUCAAUACAGCGUGGCAAAGUGGCUGUGGCUAGACUGCC [G7U C8G C13U], the self-cleavage came out at 0.08.
The figure for GGCAGAUGUCAACACGGCGUGGCAAUGUGGCUGUGGCUAGACUGCC [G7U C8G A16G A26U] is 0.06; for GGCAGAUCUCAACACAGCGUGGCAAAGUGGCUGUGGUUAGACUGAC [G7U C37U C45A] it is 0.04; for GGCAGAUCUCAACACAGCGUGGUAAAGUAGCUGUGGCUAGACUGCC [G7U C23U G29A] it is 0.02.
In the case of GGCAGAUCUAAACAGAGCGUGGCAAAGUGGCUCUGGCUAGACUGCC [G7U C10A C15G G33C], the self-cleavage is 0.01.
In the case of GGCAGAUCUCAACACAGCAUGGCAAAGUGGCUGUGACUAGAGUGCC [G7U G19A G36A C42G] it was 0.04; in that of GGCAGAUCUAACCCCCGCAUGGCAAAGUGGCUGUCGCUAGACUGCC [G7U C10A A12C A14C A16C G19A G35C], 0.01; in that of GGCAGAUGUCAACACAGCGUGGCAAAGUGGCUGUUGCUAGACUGCC [G7U C8G G35U], 0.31.
As for GGCAGAUCUAGACACAGCGUGGCAAAGUGGCUGUGCCUAAACUGCC [G7U C10A A11G G36C G40A], the self-cleavage amounted to 0.
In the case of GGCAGAUCUCAACACAGCGUGGCAAAGUGUCUGUCGUUAGACUGCC [G7U G30U G35C C37U] it was 0.02; in that of GGCAGAUCUCAACACAGCGUCGCUAAGUUGCUGUGGCUAGACUGCC [G7U G21C A24U G29U], 0.27; in that of GGCAGAUCUCAACACAGCGUGGCAAAGUGUUUGUGGCUAGACUGUC [G7U G30U C31U C45U], 0.04.
For GGCAGAUCUAAACACAGCGUGGCAAAGCGGCUAUCGCUUGACUGCC [G7U C10A U28C G33A G35C A39U], the self-cleavage turned out to be 0.02.
Take GGCAGAUCUCAACACAGCGUGGCAAAUUGGCUGUGGGUAGACUGCC [G7U G27U C37G]: the self-cleavage was determined as 0.03.
As to GGCAGAUCUCAACACAGCGUGGAAAAGUGGCUGUGGGGAGACUGCC [G7U C23A C37G U38G], the self-cleavage came out at 0.01.
